Consider 42 compounds from ChEMBL document CHEMBL4888484, “Replenishing the malaria drug discovery pipeline: Screening and hit evaluation of the MMV Hit Generation Library 1 (HGL1) against asexual blood stage Plasmodium falciparum ,using a nano luciferase reporter read-out” (2022).

Molecules are shown by their SMILES. Among all 150,000 compounds or so, about 540 (0.36%) showed an effect of 50% or more. The list shows a part of the results.

In the assay the test system is Plasmodium falciparum. The assay can be described thus: Primary screen in NF54 nanoGlo assay, in single point, at 2uM, 72h; a lower Z score goes with more inhibition. The class given is functional, Erythrocyte. To be noted: timepoint 72 hour.
Usually % Inhibition stands for the change of the read-out against control, counted positive when it falls. Take `COc1cccc(OC)c1C(=O)NCc1c2c(c(O)c3c1OCO3)C(=O)N(C)CC2`: the “% Inhibition” value was -13% and the Z score is on record as 1.76.
As to `C[C@@H](c1ccccc1)n1c(NC(=O)c2cccc(Br)c2)c(S(=O)(=O)c2ccccc2)c2nc3ccccc3nc21`, the “% Inhibition” value is recorded as 1% and the Z score is on record as -0.19.
Taken in the same sequence, the figures for `CCOC(=O)CN(C)C(=O)c1ccc(NC)cc1Cl` were -15% and 2.61.
Taken in the same sequence, the figures for `N[C@H]1CCCN(C(=O)Nc2ccccc2Oc2ccccc2)CC1` were 8% and -1.07.
As to `CNC(=O)Cc1nc(Cc2ccccc2Br)cs1`, the “% Inhibition” value was -18% and the Z score was 2.85.
In the case of `O=C(Nc1nc(-c2ccc3c(c2)OCCO3)cs1)c1cccc(S(=O)(=O)N2CCCc3ccccc32)c1`, the “% Inhibition” value came to 6% and the Z score is listed as -0.81.
Take `Cc1ccc(Oc2nc(N3CCN(C)CC3)nc3c2CN(S(=O)(=O)c2cccc(C)c2)CC3)cc1`: the “% Inhibition” value is reported as -7% and the Z score is listed as 0.77.
Taken in the same sequence, the figures for `Cc1ccc2[nH]cc(-c3nc4c([nH]3)CCN[C@H]4C(=O)O)c2c1` were -4% and 0.5.
As for `O=C(NCCS(=O)(=O)N1CCCC1)c1ccc2cccc(F)c2n1`, the “% Inhibition” value came to 0% and the Z score is -0.04.
Taken in the same sequence, the figures for `Nc1nc2c(s1)C[C@@H](NC(=O)C[C@@H]1CCCC[C@H]1O)CC2` were 1% and -0.13.
As to `CC(C)C(=O)N1CCC(c2nc(Cc3cc(F)cc(F)c3)no2)CC1`, the “% Inhibition” value is listed as -8% and the Z score is reported as 0.96.
On to `O=C(NC1CC1C1CCCCC1)N1CCS(=O)(=O)CC1` (centres undefined), for which the “% Inhibition” value was 77% and the Z score is recorded as -9.17.
On the same counts, the results for `Cc1cc(C(=O)NC[C@H]2CCN(Cc3nc4ccccc4[nH]3)C2)[nH]n1` are -4% and 0.63.
Taken in the same sequence, the figures for `O=C(c1ccc(Cl)cc1Cl)N(Cc1ccsc1)Cc1ccccn1` were 18% and -2.66.
Turning to `CCCN(CC1CC1)C(=O)Nc1ccc2c(c1)OCO2`, the “% Inhibition” value is 6% and the Z score was -1.16.
Taken in the same sequence, the figures for `CC(Cc1ccc2ccccc2c1)NC(=O)NC1CCN(C)C1=O` (centres undefined) were -6% and 0.93.
On the same counts, the results for `CCc1nc(C)c(CN2CCC[C@H](N(C)CCc3ccc(OC)c(OC)c3)C2)[nH]1` are -18% and 1.9.
Turning to `CC1CN(C(=O)CN(C)c2cnccn2)CC(C)O1` (centres undefined), the “% Inhibition” value is -5% and the Z score stood at 0.83.
Take `CCOc1cc([C@H]2Nc3ccccc3C(=O)N2c2ccc(F)cc2)ccc1OCc1ccccc1Cl`: the “% Inhibition” value is 5% and the Z score is on record as -0.77.
Consider `O=C(NCc1nnnn1C1CC1)N1CCC(CCc2ccc(F)cc2F)CC1`, for which the “% Inhibition” value is -7% and the Z score is recorded as 0.97.
On to `Cc1ccsc1CCC(=O)NC[C@H]1COc2ccccc21`, for which the “% Inhibition” value is given as -5% and the Z score came out at 0.78.
For `O=S(=O)(Nc1ccc(N2CCOCC2)cc1)c1ccc(-c2nnc(C3CCC3)o2)o1`, the “% Inhibition” value stood at 8% and the Z score is given as -1.1.
Consider `Cc1nnc(CN(C)C[C@H](C)Oc2ccc(Cl)c(Cl)c2)n1C`, for which the “% Inhibition” value is recorded as -4% and the Z score came out at 0.53.
For the compound `CC(C)Cn1cncc1CNC(=O)CNC(=O)N(C)C`, the “% Inhibition” value is recorded as -14% and the Z score is on record as 1.59.
Regarding `O=C1C(=O)N(CN2CCC[C@H]2c2ccccc2)c2ccccc21`, the “% Inhibition” value worked out at 13% and the Z score is -1.71.
As to `CCO[C@H]1CCN(C(=O)Cc2ccc3cn[nH]c3c2)C1`, the “% Inhibition” value is recorded as -4% and the Z score is recorded as 0.76.
As to `Cc1cc(C)cc([C@H]2CCN(S(=O)(=O)c3c(Cl)cnn3C)C2)c1`, the “% Inhibition” value is reported as -8% and the Z score turned out to be 1.2.
Taken in the same sequence, the figures for `COCCN(CC(=O)N1N=C(c2cccn2C)C[C@H]1c1ccc(C)cc1)C(=O)c1ccc(OC)cc1` were -11% and 1.07.
In the case of `Cc1ccc(C2=NOC(CNC(=O)N3CCC[C@H]3CO)C2)cc1C` (some centres undefined), the “% Inhibition” value worked out at 4% and the Z score is recorded as -0.43.
On to `CC(C)C[C@H]1CCN(C(=O)Nc2ccncc2F)C1`, for which the “% Inhibition” value is given as -8% and the Z score is listed as 1.2.
In the case of `COc1ccc(F)cc1CC(=O)N1CCCC[C@@H]1CN1CCCC1=O`, the “% Inhibition” value was 0% and the Z score is given as 0.01.
With `CC(=O)NC(C)(C)C(N)=NOCc1c(Cl)cccc1Cl`, the “% Inhibition” value was -8% and the Z score is given as 1.2.
Taken in the same sequence, the figures for `CCc1nnc(CNS(=O)(=O)c2cccc(C(=O)NC3CCC3)c2)s1` were -10% and 1.79.
On to `CCCn1c(C)cnc1CC1CCN(C(=O)c2ccco2)CC1`, for which the “% Inhibition” value is -8% and the Z score was found to be 1.22.
`C[C@H](NS(=O)(=O)c1cccnc1)c1ccccn1`: the “% Inhibition” value is -7% and the Z score was determined as 1.4.
For the compound `CC(C)[C@H]1CCO[C@H]1C(=O)NCC(=O)N1Cc2ccccc2C1`, the “% Inhibition” value was -3% and the Z score is recorded as 0.28.
Taken in the same sequence, the figures for `Cc1nnc(N(C)C[C@H]2CCCCN2C)s1` were -8% and 1.43.
In the case of `Cc1c[nH]nc1C(=O)N[C@@](C)(CO)c1cccc(Br)c1`, the “% Inhibition” value is on record as -1% and the Z score is on record as 0.2.
Taken in the same sequence, the figures for `O=S(=O)(NC1(CN2CCCC2)CCCCC1)c1cccnc1` were -11% and 1.82.
`F[C@@H]1CN[C@H](CNc2nc(-c3ccccc3)nc3ccccc23)C1`: the “% Inhibition” value is recorded as -12% and the Z score is 2.11.
`CC(=O)N1CCC(CN(C)C(=O)C(C)Oc2cccc(C)c2)C1` (centres undefined): the “% Inhibition” value was -14% and the Z score amounted to 1.78.
For the compound `Cc1ccccc1-c1noc(C2CCN(C(=O)c3cc4ccccc4[nH]3)CC2)n1`, the “% Inhibition” value was found to be 1% and the Z score is given as -0.08.
